# Scores with a large standard error are left out. The source holds two more conditions with little spread; they are left out. Read del as a deletion of the residues named and ins as an insertion between two positions. For part of these data: The concentration of ogerin is not given here.
# B1: GPR68, Q15743 (parent)
# chain: MGNITADNSSMSCTIDHTIHQTLAPVVYVTVLVVGFPANCLSLYFGYLQIKARNELGVYLCNLTVADLFYICSLPFWLQYVLQHDNWSHGDLSCQVCGILLYENIYISVGFLCCISVDRYLAVAHPFRFHQFRTLKAAVGVSVVIWAKELLTSIYFLMHEEVIEDENQHRVCFEHYPIQAWQRAINYYRFLVGFLFPICLLLASYQGILRAVRRSHGTQKSRKDQIQRLVLSTVVIFLACFLPYHVLLLVRSVWEASCDFAKGVFNAYHFSLLLTSFNCVADPVLYCFVSETTHRDLARLRGACLAFLTCSRTGRAREAYPLGAPEASGKSGAQGEEPELLTKLHPAFQTPNSPGSGGFPTGRLA
# Columns and labels:
# [1] = variants of: B1; test: cAMP reporter score (Enrich2 score, wild type = 0); higher = more signal; HEK293T, FACS bins
# [2] = variants of: B1; test: surface expression score (Enrich2 score, wild type = 0); higher = more signal; HEK293T, FACS bins
Variant,cAMP reporter score ([1]; pH 5.5),cAMP reporter score ([1]; pH 6),"cAMP reporter score ([1]; pH 6, modulator: ogerin)","cAMP reporter score ([1]; pH 6.5, modulator: ogerin)",surface expression score [2]
F265Y,-0.158,-1.2,0.131,-0.945,1.45
F265_N266insGSG,-1.38,0.18,-1.46,-0.643,-1.61
F265del,-1.42,0.298,-1.5,-1.01,-0.84
N266del,0.042,-0.155,,0.02,-2.62
A267_Y268insG,-1.37,-1.07,-0.423,-0.85,-0.404
A267_Y268insGS,-1.18,-1.6,,-0.617,
Y268_H269insGSG,-2.09,-1.2,-1.84,-1.22,-2.23
H269_F270insG,-1.89,-1.36,-1.82,-1.45,-1.74
H269_F270insGSG,-1.53,-0.397,-1.49,-0.76,-2.61
F270A,0.287,0.32,0.377,-0.19,1.13
F270C,-0.607,-0.251,-0.412,-1.7,-1.17
F270D,-1.1,-0.894,-1.94,-1.01,-2.29
F270E,-2.07,,-0.998,-1.49,
F270G,-0.45,-0.815,-0.158,0.104,-0.32
F270H,-1.26,-1.65,-1.77,-0.479,-2.43
F270I,-0.279,-1.77,-0.737,-1.8,0.411
